This note sets out measurements from paper PMC10726135.

The list shows a part of the results. At the low end of the ranking the order means little. The protein was read in a cell extract, so binding may be indirect.

The assay addresses T1, HNF4alpha2 (COS-7 nuclear extract) (UniProt P41235).
T1 sequence: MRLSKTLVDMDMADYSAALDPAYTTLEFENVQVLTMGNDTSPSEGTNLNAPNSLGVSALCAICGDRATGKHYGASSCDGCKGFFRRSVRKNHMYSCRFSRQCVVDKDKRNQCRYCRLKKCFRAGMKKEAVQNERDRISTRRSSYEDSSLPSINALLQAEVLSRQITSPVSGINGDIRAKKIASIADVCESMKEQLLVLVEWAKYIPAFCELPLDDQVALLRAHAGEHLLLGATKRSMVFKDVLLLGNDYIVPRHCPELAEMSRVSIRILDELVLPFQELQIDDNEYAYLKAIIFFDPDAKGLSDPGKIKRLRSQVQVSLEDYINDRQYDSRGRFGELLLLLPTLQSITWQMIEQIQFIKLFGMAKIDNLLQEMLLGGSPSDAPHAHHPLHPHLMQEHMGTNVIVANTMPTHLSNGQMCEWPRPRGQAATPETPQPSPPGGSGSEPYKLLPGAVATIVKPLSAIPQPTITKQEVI
Kind of assay: protein-binding microarray. To be noted: COS-7 nuclear extract on double-stranded Agilent 4x180k PBM; binding buffer, salt, pH and temperature not given; high values mean tight binding; double strand, one strand shown; sequences stand for … in …GCCTAGGGAGATTAGAGTATCGGTCGA
On to GGTGAGGGTGAGGGTGAGGGTTAGGGGTTA, for which the binding signal (log2 normalized intensity) is -0.0851. Then CTTTCAGCCTCTCTGCAAACATTTATTTTG, with 0.367.

For AGGACCTGACATTCTCCACTTGGTGACTGT, the binding signal (log2 normalized intensity) turned out to be 0.935. With GAGATCAGGTCTCTTTTATGTACCACCGTA, the binding signal (log2 normalized intensity) was 0.641.

Take GAGGGTAACAATGCTGATGGGGACCACAGA: the binding signal (log2 normalized intensity) is -0.887. The figure for ATAGCTCAGGTCCAAGGAACCTCACGCGCT is -1.02; for GTCGACCTTTAAACGTTTGCTGGATCAGCA it is 1.64; for TTATGATATGAAGCATTGCTTGAGTCACTT it is 1. Then TTTGAAGGTTAAAGTCCATTTTTGAGGACC, with 5.44.

For CAAGTGCCAACAAACTCAATCCTGGCCTCT, the binding signal (log2 normalized intensity) is -0.92.

For the sequence TGCTGTGTGTGTGTGTGTGTGTGTGTGTGT, the binding signal (log2 normalized intensity) worked out at 3.59. The figure for GGAGGTTCTTGTTTAATTCTTTTCAACTGG is 1.57; for AGTATATTGGCTTGGCTGTGTCCCTTGACC it is 3.04. Then ACTGGGGATAGAATCAAAGGTCAGGAATCG, with 3.29; and CGCCAGCGCCCCCGTGTGGCCGCGAGCACC, with 2.59; and CGGTCAGCTGCTTGACTTAGTACATGGCCT, with 0.557. The figure for ATGGCCAGCCTTTGGACTTTGAACTGCAAC is 9.66; for GAGATCAGGATACCAAGGCTCAGAGGTCAA it is 3.16; for AACTGGGGGCATAGCCCATGCAAATACTCG it is -1.16.

TGTCACACTGGCCTTTGCCCTCGCTGGCGG: the binding signal (log2 normalized intensity) worked out at 4.25. Then AATCCCTTAGGCTTTTGCACTTTACTCAGA, with 3.14; and TGGGGCAGGGAAATATGTTCCACCCAGGGT, with -1.04. Then TAACCTTCTGCTGGATGCCCAGGGATTCCT, with -1.08; and GAATGGCCAGAGTTCCTGTGCAAGCCCCTG, with -0.332; and GCTGATGGGACCAAAGGTGAAGGGGTCACC, with 3.37. Consider TGAAACTCAGCATACAATGAATATTCAGAC, for which the binding signal (log2 normalized intensity) was -1.09. For the sequence GTTGAACCTCTGTCCTTGGCCTCACAGACA, the binding signal (log2 normalized intensity) was -1.14. Then TTATCCCTCACAATCTTAAGATAAGGTCTT, with 0.338; and GATGTTTAGCTATCAGTGTTGACCTCTGGA, with 5.32. TCGGGATTATGGTAGGCAGCCTCTGAGATG: the binding signal (log2 normalized intensity) is -0.0677. The figure for TTGACCGCTGCCTCCCACCCCCACGGTGCG is 5.29; for AGTAACAGGGCACATGTACACAGGAATATC it is -1.05.

Consider CATGGTGACTCTAGTCAATGTATTTTATTC, for which the binding signal (log2 normalized intensity) amounted to 1.06. Regarding CTGGCTTCCCTTTGATCTTTCCCTTCCTGG, the binding signal (log2 normalized intensity) was found to be 2.01. Consider TTTAGGGTAGCCTGGGTTAAAGTCCGTTAC, for which the binding signal (log2 normalized intensity) was 4.55. The figure for CCCGTGTGGCCGCGAGCACCGCGCGCGCAA is -1.05.

Regarding CACACTGGGAATTGGGATGGCAGCTTCATT, the binding signal (log2 normalized intensity) was -0.852.

With CAAAACTGGAAATTCACGTCATTTTGTCAC, the binding signal (log2 normalized intensity) came out at 0.954.

For ACCCAGTCTTAGGGACTAAGCTTGTAGACC, the binding signal (log2 normalized intensity) is -1.11. Then TATCTCCTCTGTAGGGCAGCAGCCGGCCTC, with -1.03; and CTGAATCTCCCAGTGCTTTGATCTTCAACT, with -0.689; and TTTCCCAACAGGTGTTAAAATAACGACCTT, with 2.26. The figure for CCACACTGGTAACCTTTAGTCTCCAGATAA is 2.3; for GCAAGGCATGGTGCTTCGCACTTCAGCACC it is 0.783. The figure for ATTATCTTTATTATCCCAGTAGAGAAACAA is 0.68; for AAGGTGGAACTCAAGATAGTTCAGCCATCA it is -1.1. Regarding CAGCTTGATAATCCCCATGGGACCAATACA, the binding signal (log2 normalized intensity) was -1.01. For the sequence TTTGCACTTGTTTTTTCAGGTGTTGCTCTC, the binding signal (log2 normalized intensity) is 1.67. Then GTCCTACAGGACATTAATCAGTCGCGTATC, with -1.32. Then TCCCCACGTGGCAATCATTCTGTCTGCCTT, with -1.04. The figure for AGAATTACAAACAGCCCTGACATTCTTGAG is -0.854. Turning to CATTGCCACACTATTTACACAGCTGATGGA, the binding signal (log2 normalized intensity) was -0.595. The figure for AGGCCAAACAAAAATATGGACTTTGGAATT is 7.99; for CTCCAGAGTCCAAACTGGGACCTGTGACAC it is 1.62. In the case of GATGCTAGGTTTGTGAGTCCAAAGGTCAGC, the binding signal (log2 normalized intensity) came to 9.14. The figure for GTAGCTCAAACAGTCTAAAAACCATAGACA is -1.36. Then CTGCTTGGGAGAACCTGTGCTTCTGGTTCT, with 0.756. Then CATTTGCTTGACCCGGGTACTGGAAACTGG, with 1.58.

With TACGCAACTGAAATTGCACTCTTTGACTAA, the binding signal (log2 normalized intensity) was -0.747. Then ACTTCAAAAGCCGGGGAAAGGGAAAAAGGG, with -1.07; and GCAGAGCAGTTTAGAGAAAGGGTCAAAGGT, with 5.29.

Take GCTAGAGAAAAAGAAAAGCCTTGTGGCAGT: the binding signal (log2 normalized intensity) was -1.15. The figure for GGTGGTTTGGGTAATAACATGTAATTGCAT is 0.957; for GTACATTGCACCCTCCAGGAGCCCCTTACC it is 1.28; for TCTAATGAACTGATTAGAACATTAAGTCCA it is 1.25. For the sequence TCCTGGGAGAACAAACCTTATCTCTCAAGG, the binding signal (log2 normalized intensity) was -0.715. Turning to CTTATCCAAAGCTGCTGGGAGGTAGCTCAA, the binding signal (log2 normalized intensity) is -0.982. The figure for CAAAGTACATATTTACTTACCTTTTCTAAT is 1.42. Then CCTTGTTCTCAGAGATCAAAGGTGAGTGGG, with 3.48; and GGCGTCTTATCAGCCCCCATGTCAGGGAAG, with 2.64; and ACCTAGAGGAGAGAGTAAATAATTGATGAA, with -1.14. Then AGGCTAGTAACACTCACATTCCACGTTTGG, with 1.07.
